The full ranking holds about 16,000 sequences; the median of “Z-score” is about -0.37, and the highest 2% start at about 3.2. The list shows a part of the results.
Test system: RBM10 RRM1-ZnF (GST-tagged construct)
Test: RNAcompete 7-mer binding Z-score; higher = stronger binding preference
Experimental: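 RNAcompete: 20 pmol GST-tagged RBM10 RNA-binding constructs were incubated with a designed RNA pool of about 241,000 sequences up to 41 nt (1.5 nmol) on glutathione beads for 30 min at 4 °C and washed. Bound RNAs were identified by microarray hybridisation. Each RNA 7-mer is scored by a one-sided Z-score of its enrichment, computed over probes that contain the 7-mer within longer pool sequences.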

Sequence	RNAcompete 7-mer binding Z-score
CCGCGGC	-0.194
AGAGCCA	-0.691
AGCCUCG	-0.62
UAGAUCG	-0.158
UUACAAA	-0.305
UUGCUGG	0.105
AUUGUCC	-0.717
ACUGACC	-0.73
ACGGCUG	0.102
AGGUCAG	1.02
GUAUGAU	0.225
CAUCGCA	-0.483
CCAUUAA	-0.941
UCGUCGA	-0.36
GAGGAAC	1.66
UCUCUAA	-0.74
CUUCGUA	-0.678
GUAAAGC	0.3
GAAGAAU	0.43
GAUGCUA	-0.292
CUCCACG	-0.6
UGCGUUG	0.15
AUCGCGC	-0.539

Sequence	RNAcompete 7-mer binding Z-score
GCGAGGC	1.16
GUUCAGC	-0.366
UCCAAAU	-0.694
GCAAUGU	0.166
GGACUUG	0.498
GGACGUU	0.53
UGAGCCC	-0.207
UUCAUGG	-0.035
CCCCUGG	0.0365
GAUUGAU	0.27
GCAAAUG	0.202
GCGACAU	-0.106
CGGACGU	0.16
GGCUUCA	-0.444
UCAGCAC	-0.435
CCCCAAA	-0.6
CCGCGUC	-0.594
GUGGCCC	0.345
CUGGAAG	0.794
AAGGUAC	1.45
UCCUGAG	-0.412
CGUCUAC	-0.678
GCUCACU	-0.844

Sequence	RNAcompete 7-mer binding Z-score
GAGUAAU	0.056
CUAUUCG	-0.893
GAAGUAG	1.17
UGAUUCA	-0.604
CCUUAGU	-0.776
CCAGUAA	-0.629
UUACCCA	-0.73
CAGUUUU	-0.87
AAUUUCC	-0.74
UGGGUCG	2.09
AGUGGAU	2.35
ACAAUCC	-0.74
CCCAUGA	-0.584
GUCGAAG	0.732
AGAAGGU	3.26
UUAUCAA	-0.707
AGAAUCA	-0.334
GGGAGGA	3.47
UUGCCAA	-0.737
CUACUAA	-0.665
CAUGGAC	0.309
GUCAAGC	-0.116
AGAACUA	-0.561

Sequence	RNAcompete 7-mer binding Z-score
CUAUGUG	-0.279
GGAGUAG	2.93
GUGUAAU	0.111
CCUGUUG	-0.701
GAUUGCG	0.218
UUUCAAC	-0.792
UCCGAUC	-0.746
UGUGCUC	-0.409
AGUUUAU	-0.535
GAGCCUC	-0.789
UCAUAUG	-0.363
AUACCCC	-0.613
GUCACGU	-0.295
CGGGCGA	1.29
UGCGAUU	-0.578
CGAUAAA	-0.409
GUGAUGC	0.836
UGGGGGU	3.87
GAUCACA	-0.305
UCUCUUA	-0.795
CAUUACC	-0.756
UCAGUGC	-0.292
GUAUCAA	-0.126

Sequence	RNAcompete 7-mer binding Z-score
GGACUUA	0.102
GCACAGU	-0.262
GUGUCCG	-0.253
CUACGUG	-0.366
UUAGGCA	0.28
UUGACCU	-0.802
UACAAAG	-0.217
AAACAGC	-0.542
UUAUUUA	-0.584
GGAGCUG	1.74
CUAGGAA	0.589
UUCUCUC	-0.756
UGAGUGC	0.254
GCUGCGG	1.13
CAACAAG	-0.184
GAAACUC	-0.659
CUCGCUA	-0.655
UUCAACG	-0.535
GGAUCAG	1.4
AUGUCAA	-0.308
GUCCCGG	0.118
AGUAGGU	1.68
CGACGAC	-0.311

Sequence	RNAcompete 7-mer binding Z-score
UGACAUG	0.319
GCAUCCU	-0.746
GUACGCU	-0.0674
AAGAUGA	0.417
GAACAAG	0.907
UCGGAUC	-0.184
UAUCGCC	-0.617
AGUGACC	-0.00896
CUAUGCA	-0.48
GUCUGUA	-0.539
CACCUAG	-0.188
CUAUGGC	-0.461
CCAAUUA	-0.513
GCGAUAU	-0.155
GUAAGCG	1.03
GACUGGG	2.42
UGUGUGU	0.0788
UCGGGUG	2.34
CAUCCUG	-0.759
GUUAUGG	1.95
GGGAUAA	3.48
AGUAAGG	3.03
CUUGCGA	-0.724

Sequence	RNAcompete 7-mer binding Z-score
UUGAGAC	-0.178
UGAGGGU	3.48
AUUGUGC	-0.383
UCGUAGG	0.277
UAGGCAU	0.16
GUUGGCU	0.27
CUGCGUA	-0.506
AUUUCAU	-0.805
AAGGACC	0.725
AGGUGUU	0.988
CGCGCCU	-0.753
GGUUAUC	0.634
AGCGGGU	3.07
UCGAGAA	-0.0967
AGCAAUG	0.043
AUCAGGG	1.97
AAUAGCU	-0.474
AUGUCUG	-0.48
CUAGUUU	-0.782
GCUCCGG	-0.191
UGCCAAG	-0.314
UCACUUA	-0.724
CUCAAUG	-0.493

Sequence	RNAcompete 7-mer binding Z-score
AGCCUCA	-0.811
CCCUGGG	0.667
CACUUCG	-0.6
UCCGCCC	-0.591
ACAGCGC	-0.604
GAGCAAC	-0.0902
ACAGUCA	-0.217
UUAACGA	-0.438
UUAAUAU	-0.529
UUUUACA	-0.707
UCAGGUG	1.34
AUGGUCC	-0.0479
ACACUUC	-0.834
AUUAUCC	-0.73
UGAGCUC	-0.37
CAAUGCA	-0.629
CAGAUUC	-0.61
GUAUAGA	0.774
AUAAGGG	3.77
ACAAUCG	-0.392
UUUGACC	-0.88
CGAUGAU	-0.246

From the supplement of paper PMC5499739
